# The supplement of paper PMC8728848
# This is one part of the list.
# B1: Als3-2 (Candida albicans) (protein)
# chain: KTITGVFNSFNSLTWSNAATYNYKGPGTPTWNAVLGWSLDGTSASPGDTFTLNMPCVFKFTTSQTSVDLTAHGVKYATCQFQAGEEFMTFSTLTCTVSNTLTPSIKALGTVTLPLAFNVGGTGSSVDLEDSKCFTAGTNTVTFNDGGKKISINVDFERSNVDPKGYLTD
# How the values were obtained:
# Assay in all cases: glycan array binding signal (z-score within array); higher = stronger binding
# Conditions in all cases: glycan notation: IUPAC condensed, linker removed
# [1] = molecular target: Neu5Ac(a2-3)Gal(b1-3)GalNAc
# Procedure, shortened: (§1)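 Arrays were curated from the Consortium for Functional Glycomics database, 3228 in total, and kept only where the protein sequence was available. Binding is expressed as a within-array Z-score. This score was averaged across arrays of the same protein sequence at different concentrations or buffers and across linkers, and negative values can be read as non-binding.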
# [2] = molecular target: Neu5Ac(a2-3)Gal(b1-3)GalNAc(b1-3)Gal(a1-4)Gal(b1-4)Glc
# Procedure, shortened: as §1
# [3] = molecular target: Neu5Ac(a2-3)Gal(b1-3)GalNAc(b1-4)[Neu5Ac(a2-3)]Gal(b1-4)Glc
# Procedure, shortened: as §1
# [4] = molecular target: Neu5Ac(a2-3)Gal(b1-3)GalNAc(b1-4)[Neu5Ac(a2-8)Neu5Ac(a2-3)]Gal(b1-4)Glc
# Procedure, shortened: as §1
# [5] = molecular target: Neu5Ac(a2-3)Gal(b1-3)GalNAc6S
# Procedure, shortened: as §1
# [6] = molecular target: Neu5Ac(a2-3)Gal(b1-3)GlcNAc
# Procedure, shortened: as §1
# [7] = molecular target: Neu5Ac(a2-3)Gal(b1-3)GlcNAc(b1-2)Man
# Procedure, shortened: as §1
# [8] = molecular target: Neu5Ac(a2-3)Gal(b1-3)GlcNAc(b1-2)Man(a1-3)[GlcNAc(b1-4)][Neu5Ac(a2-3)Gal(b1-3)GlcNAc(b1-2)Man(a1-6)]Man(b1-4)GlcNAc(b1-4)GlcNAc
# Procedure, shortened: as §1
# [9] = molecular target: Neu5Ac(a2-3)Gal(b1-3)GlcNAc(b1-2)Man(a1-3)[Neu5Ac(a2-3)Gal(b1-3)GlcNAc(b1-2)Man(a1-6)]Man(b1-4)GlcNAc(b1-4)GlcNAc
# Procedure, shortened: as §1
# [10] = molecular target: Neu5Ac(a2-3)Gal(b1-3)GlcNAc(b1-3)Gal(b1-3)GlcNAc
# Procedure, shortened: as §1
# [11] = molecular target: Neu5Ac(a2-3)Gal(b1-3)GlcNAc(b1-3)Gal(b1-4)GlcNAc
# Procedure, shortened: as §1
# [12] = molecular target: Neu5Ac(a2-3)Gal(b1-3)GlcNAc(b1-3)GalNAc
# Procedure, shortened: as §1
# [13] = molecular target: Neu5Ac(a2-3)Gal(b1-3)GlcNAc(b1-4)Gal(b1-4)Glc
# Procedure, shortened: as §1
# [14] = molecular target: Neu5Ac(a2-3)Gal(b1-3)GlcNAc(b1-6)GalNAc
# Procedure, shortened: as §1
# [15] = molecular target: Neu5Ac(a2-3)Gal(b1-3)GlcNAc6S
# Procedure, shortened: as §1
# [16] = molecular target: Neu5Ac(a2-3)Gal(b1-3)[Fuc(a1-4)]GlcNAc
# Procedure, shortened: as §1
# [17] = molecular target: Neu5Ac(a2-3)Gal(b1-3)[Fuc(a1-4)]GlcNAc(b1-3)Gal(b1-3)[Fuc(a1-4)]GlcNAc
# Procedure, shortened: as §1
# [18] = molecular target: Neu5Ac(a2-3)Gal(b1-3)[Fuc(a1-4)]GlcNAc(b1-3)Gal(b1-4)[Fuc(a1-3)]GlcNAc
# Procedure, shortened: as §1
# [19] = molecular target: Neu5Ac(a2-3)Gal(b1-3)[GlcNAc(b1-6)]GalNAc
# Procedure, shortened: as §1
# [20] = molecular target: Neu5Ac(a2-3)Gal(b1-3)[Neu5Ac(a2-6)]GalNAc
# Procedure, shortened: as §1
# [21] = molecular target: Neu5Ac(a2-3)Gal(b1-3)[Neu5Ac(a2-6)]GlcNAc(b1-3)[Fuc(a1-3)[Gal(b1-4)]GlcNAc(b1-6)]Gal(b1-4)Glc
# Procedure, shortened: as §1
# [22] = molecular target: Neu5Ac(a2-3)Gal(b1-3)]Neu5Ac(a2-3)Gal(b1-4)]GlcNAc
# Procedure, shortened: as §1
# Neu5Ac(a2-3)Gal(b1-4)Glc = molecular target: Neu5Ac(a2-3)Gal(b1-4)Glc
# Procedure, shortened: as §1
# [23] = molecular target: Neu5Ac(a2-3)Gal(b1-4)GlcNAc
# Procedure, shortened: as §1
# [24] = molecular target: Neu5Ac(a2-3)Gal(b1-4)GlcNAc(b1-2)Man
# Procedure, shortened: as §1
# [25] = molecular target: Neu5Ac(a2-3)Gal(b1-4)GlcNAc(b1-2)Man(a1-3)[GlcNAc(b1-4)][Neu5Ac(a2-3)Gal(b1-4)GlcNAc(b1-2)Man(a1-6)]Man(b1-4)GlcNAc(b1-4)GlcNAc
# Procedure, shortened: as §1
# [26] = molecular target: Neu5Ac(a2-3)Gal(b1-4)GlcNAc(b1-2)Man(a1-3)[Neu5Ac(a2-3)Gal(b1-4)GlcNAc(b1-2)Man(a1-6)]Man(b1-4)GlcNAc(b1-4)GlcNAc
# Procedure, shortened: as §1
# [27] = molecular target: Neu5Ac(a2-3)Gal(b1-4)GlcNAc(b1-2)Man(a1-3)[Neu5Ac(a2-3)Gal(b1-4)GlcNAc(b1-2)Man(a1-6)]Man(b1-4)GlcNAc(b1-4)[Fuc(a1-6)]GlcNAc
# Procedure, shortened: as §1
# [28] = molecular target: Neu5Ac(a2-3)Gal(b1-4)GlcNAc(b1-2)Man(a1-3)[Neu5Ac(a2-6)Gal(b1-4)GlcNAc(b1-2)Man(a1-6)]Man(b1-4)GlcNAc(b1-4)GlcNAc
# Procedure, shortened: as §1
# [29] = molecular target: Neu5Ac(a2-3)Gal(b1-4)GlcNAc(b1-2)[Neu5Ac(a2-3)Gal(b1-4)GlcNAc(b1-4)]Man(a1-3)[GlcNAc(b1-4)][Neu5Ac(a2-3)Gal(b1-4)GlcNAc(b1-2)[Neu5Ac(a2-3)Gal(b1-4)GlcNAc(b1-6)]Man(a1-6)]Man(b1-4)GlcNAc(b1-4)GlcNAc
# Procedure, shortened: as §1
# [30] = molecular target: Neu5Ac(a2-3)Gal(b1-4)GlcNAc(b1-2)[Neu5Ac(a2-3)Gal(b1-4)GlcNAc(b1-4)]Man(a1-3)[GlcNAc(b1-4)][Neu5Ac(a2-3)Gal(b1-4)GlcNAc(b1-4)Man(a1-6)]Man(b1-4)GlcNAc(b1-4)GlcNAc
# Procedure, shortened: as §1
# [31] = molecular target: Neu5Ac(a2-3)Gal(b1-4)GlcNAc(b1-2)[Neu5Ac(a2-3)Gal(b1-4)GlcNAc(b1-6)]Man(a1-6)[Neu5Ac(a2-3)Gal(b1-4)GlcNAc(b1-2)Man(a1-3)]Man(b1-4)GlcNAc(b1-4)GlcNAc
# Procedure, shortened: as §1
# [32] = molecular target: Neu5Ac(a2-3)Gal(b1-4)GlcNAc(b1-2)[Neu5Ac(a2-3)Gal(b1-4)GlcNAc(b1-6)]Man(a1-6)[Neu5Ac(a2-3)Gal(b1-4)GlcNAc(b1-2)Man(a1-3)][GlcNAc(b1-4)]Man(b1-4)GlcNAc(b1-4)GlcNAc
# Procedure, shortened: as §1
# [33] = molecular target: Neu5Ac(a2-3)Gal(b1-4)GlcNAc(b1-3)Gal
# Procedure, shortened: as §1
# [34] = molecular target: Neu5Ac(a2-3)Gal(b1-4)GlcNAc(b1-3)Gal(b1-3)GlcNAc
# Procedure, shortened: as §1
# [35] = molecular target: Neu5Ac(a2-3)Gal(b1-4)GlcNAc(b1-3)Gal(b1-4)GlcNAc
# Procedure, shortened: as §1
# [36] = molecular target: Neu5Ac(a2-3)Gal(b1-4)GlcNAc(b1-3)Gal(b1-4)GlcNAc(b1-2)Man(a1-3)[Neu5Ac(a2-3)Gal(b1-4)GlcNAc(b1-3)Gal(b1-4)GlcNAc(b1-2)Man(a1-6)]Man(b1-4)GlcNAc(b1-4)GlcNAc
# Procedure, shortened: as §1
# [37] = molecular target: Neu5Ac(a2-3)Gal(b1-4)GlcNAc(b1-3)Gal(b1-4)GlcNAc(b1-3)Gal(b1-4)GlcNAc
# Procedure, shortened: as §1
# [38] = molecular target: Neu5Ac(a2-3)Gal(b1-4)GlcNAc(b1-3)Gal(b1-4)GlcNAc(b1-3)Gal(b1-4)GlcNAc(b1-2)Man(a1-3)[Neu5Ac(a2-3)Gal(b1-4)GlcNAc(b1-3)Gal(b1-4)GlcNAc(b1-3)Gal(b1-4)GlcNAc(b1-2)Man(a1-6)]GalNAc
# Procedure, shortened: as §1
# [39] = molecular target: Neu5Ac(a2-3)Gal(b1-4)GlcNAc(b1-3)Gal(b1-4)GlcNAc(b1-3)GalNAc
# Procedure, shortened: as §1
# [40] = molecular target: Neu5Ac(a2-3)Gal(b1-4)GlcNAc(b1-3)Gal(b1-4)GlcNAc(b1-3)[Neu5Ac(a2-3)Gal(b1-4)GlcNAc(b1-3)Gal(b1-4)GlcNAc(b1-6)]GalNAc
# Procedure, shortened: as §1
# [41] = molecular target: Neu5Ac(a2-3)Gal(b1-4)GlcNAc(b1-3)Gal(b1-4)GlcNAc(b1-6)[Gal(b1-3)]GalNAc
# Procedure, shortened: as §1
# [42] = molecular target: Neu5Ac(a2-3)Gal(b1-4)GlcNAc(b1-3)Gal(b1-4)[Fuc(a1-3)]GlcNAc
# Procedure, shortened: as §1
# [43] = molecular target: Neu5Ac(a2-3)Gal(b1-4)GlcNAc(b1-3)GalNAc
# Procedure, shortened: as §1
# [44] = molecular target: Neu5Ac(a2-3)Gal(b1-4)GlcNAc(b1-3)[Neu5Ac(a2-3)Gal(b1-4)GlcNAc(b1-6)]GalNAc
# Procedure, shortened: as §1
binder,measurement,setting,value
B1,glycan array binding signal (z-score),[1],-0.648
same,glycan array binding signal (z-score),[2],-0.583
same,glycan array binding signal (z-score),[3],-0.612
same,glycan array binding signal (z-score),[4],-0.039
same,glycan array binding signal (z-score),[5],-0.657
same,glycan array binding signal (z-score),[6],-0.337
same,glycan array binding signal (z-score),[7],-0.126
same,glycan array binding signal (z-score),[8],-0.325
same,glycan array binding signal (z-score),[9],-0.393
same,glycan array binding signal (z-score),[10],-0.517
same,glycan array binding signal (z-score),[11],-0.648
same,glycan array binding signal (z-score),[12],-0.729
same,glycan array binding signal (z-score),[13],-0.296
same,glycan array binding signal (z-score),[14],1.45
same,glycan array binding signal (z-score),[15],-0.302
same,glycan array binding signal (z-score),[16],-0.237
same,glycan array binding signal (z-score),[17],-0.524
same,glycan array binding signal (z-score),[18],-0.614
same,glycan array binding signal (z-score),[19],1.2
same,glycan array binding signal (z-score),[20],-0.234
same,glycan array binding signal (z-score),[21],-0.634
same,glycan array binding signal (z-score),[22],2.16
same,glycan array binding signal (z-score),Neu5Ac(a2-3)Gal(b1-4)Glc,-0.386
same,glycan array binding signal (z-score),[23],-0.128
same,glycan array binding signal (z-score),[24],3.09
same,glycan array binding signal (z-score),[25],-0.624
same,glycan array binding signal (z-score),[26],1.26
same,glycan array binding signal (z-score),[27],-0.654
same,glycan array binding signal (z-score),[28],-0.401
same,glycan array binding signal (z-score),[29],3.2
same,glycan array binding signal (z-score),[30],0.714
same,glycan array binding signal (z-score),[31],-0.002
same,glycan array binding signal (z-score),[32],-0.749
same,glycan array binding signal (z-score),[33],-0.687
same,glycan array binding signal (z-score),[34],-0.584
same,glycan array binding signal (z-score),[35],0.572
same,glycan array binding signal (z-score),[36],0.388
same,glycan array binding signal (z-score),[37],0.238
same,glycan array binding signal (z-score),[38],2.23
same,glycan array binding signal (z-score),[39],0.384
same,glycan array binding signal (z-score),[40],6.15
same,glycan array binding signal (z-score),[41],-0.019
same,glycan array binding signal (z-score),[42],-0.621
same,glycan array binding signal (z-score),[43],-0.374
same,glycan array binding signal (z-score),[44],1.61
